PubChem BioAssay (NCI)
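Cultured in 96-well plates, cells were exposed to test compound for 48 hours across five concentrations. GI50: concentration for 50% inhibition of growth. TGI: concentration producing complete growth inhibition.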 Square brackets hold non-standard residues; d marks the D form. Peptide text beside a SMILES is read from it. * marks the point of attachment. Iva = CC[C](C)(N)C(=O)O; Boc = CC(C)(C)OC(=O)*; X48 = C1CCC(=NO*)C1

Test system: NCI-H322M lung
Test: NCI tumour cell line growth inhibition, 48 h

CCOC(=O)Cc1ccc2c(c1O)C(=O)c1c(ccc(CC(=O)OCC)c1O)C2=O showed a TGI of over 100 µM.
For NC(=O)CCC(Nc1c2ccccc2nc2ccccc12)C(=O)O (configuration not stated), the TGI was over 100 µM.
CCC(=O)Nc1ccccc1C#C/C=C\C#Cc1ccccc1SC was tested, and the GI50 was over 100 µM and the TGI was over 100 µM.
Cc1nc(C(N)=S)sc1C(=O)CC(=O)C(=O)Nc1ccccc1[N+](=O)[O-] gave a TGI of over 100 µM.
Cc1ccc2c(-c3ccnc(Nc4ccccc4)n3)c(-c3ccc(F)cc3)nn2n1 gave a GI50 of 5.82 µM and a TGI of over 25 µM.
With O=[N+]([O-])c1ccc(N=Nc2c(O)ccc3ccccc23)c([N+](=O)[O-])c1 the TGI was over 100 µM.
Compound Cc1ccc(/C(O)=C/c2nc3c(nc2NC24CC5CC(CC(C5)C2)C4)c(=O)oc2ccccc23)cc1 has a TGI of over 100 µM.
For O=S(CC1(O)CCCCC1)c1ccccc1 (configuration not stated), the TGI was over 100 µM.
With O=C(CCc1nnc2s/c(=C\c3ccc(Cl)c(Cl)c3)c(=O)n12)Nc1ccc(Cl)c(Cl)c1 the TGI was over 100 µM.
Compound C/C(=N\Nc1cc(C)c2ccccc2n1)c1ccccn1 has a GI50 of under 0.0254 µM and a TGI of 3.05 µM.
Compound O=C1C=CC(=O)C12CCc1ccccc12 has a TGI of over 100 µM.
For COc1ccc(-c2oc(=O)ccc2-c2cc(OC)c(OC)c(OC)c2)cc1O, the GI50 was over 19.8 µM and the TGI was over 100 µM.
Cc1cc(=O)oc2c(C)c(O)ccc12 showed a TGI of over 100 µM.
Compound C1CSCCSCCSCCSC1 has a TGI of over 100 µM.
Compound Cc1ccccc1NC(=O)c1c(C)oc2c1C(=O)c1ccccc1C2=O has a TGI of over 100 µM.
Compound NC(N)=NS(=O)(=O)c1ccc(NNc2c3ccccc3nc3c(C(=O)Nc4ccc(S(=O)(=O)N=C(N)N)cc4)cccc23)cc1 has a TGI of over 100 µM.
With CCC(C(=O)C(=O)C(CC)P1(=O)OC(C)(C)CN1C(C)(C)C)P1(=O)OC(C)(C)CN1C(C)(C)C (configuration not stated) the TGI was over 100 µM.
For Nc1c2ccccc2nc2ccc3c(=O)cc(-c4ccccc4)oc3c12, the TGI was 2.28 µM.
CC(C)OP(=O)(OC(C)C)c1nc(-c2ccccc2)n(-c2ccc([N+](=O)[O-])cc2)n1 was tested, and the TGI was over 100 µM.
Nc1nc(Cl)c(/C=N\O)c(NCC2(CO)CCC2)n1 showed a TGI of over 100 µM.
For C=C(CN1CCN(c2cccc(C(F)(F)F)n2)CC1)c1ccc(C(=O)Nc2ccccc2N)cc1, the TGI was over 100 µM.
For CCN(CC)c1ccc2cc(C(N)=S)c(=N)oc2c1, the TGI was over 100 µM.
In the case of O=C1CC(=O)N(C(=O)c2nn(-c3ccc(Cl)cc3)cc2O)N1, the GI50 is reported as 0.478 µM and the TGI is reported as over 57.7 µM.
With COc1ccc(P2(=S)Oc3ccccc3-c3ccccc3O2)cc1 the TGI was over 100 µM.
Compound Cc1ccc(Cc2cnc(NC(=O)/C=C/c3cccc(C)c3)s2)cc1 has a GI50 of 0.448 µM and a TGI of over 100 µM.
In the case of CCn1c(SCC(=O)N/N=C/c2ccccc2)nc2ccccc2c1=O, the TGI is reported as over 100 µM.
For COc1cc2ncn(-c3cc(O[C@@H](C)c4ccccc4Cl)c(C(N)=O)s3)c2cc1OC, the GI50 was 5.2 µM and the TGI was over 25 µM.
With COc1ccccc1C(O)(c1ccccc1)C(O)(c1ccccc1)c1ccccc1OC (configuration not stated) the TGI was over 100 µM.
Compound Clc1ccc(OCc2nnc(CCCCCCCCc3nnc(COc4ccc(Cl)cc4Cl)n3Nc3ccccc3)n2Nc2ccccc2)c(Cl)c1 has a TGI of over 100 µM.
Work on CN=c1c2c(c3[nH]c4ccccc4c4cnc1c34)NCCC2=O yielded a TGI of over 10 µM.
CC1=NN(c2cccc(Cl)c2)C2(SCC(=O)N2c2nc3ccccc3s2)/C1=C\c1ccc(N(C)C)cc1 (configuration not stated) showed a TGI of over 100 µM.
For CCOC(=O)CCC(NC(=O)c1ccc(Oc2nc3ccccc3nc2-c2ccccc2)cc1)C(=O)OCC (configuration not stated), the TGI was over 100 µM.
CC(=O)[CH-]C(=O)c1ccccc1.CC(=O)[CH-]C(=O)c1ccccc1.CC(C)CCCC(C)[C@H]1CCC2[C@@H]3CC=C4C[C@@H]([O-])CC[C@]4(C)C3CC[C@@]21C.CC(C)CCCC(C)[C@H]1CCC2[C@@H]3CC=C4C[C@@H]([O-])CC[C@]4(C)C3CC[C@@]21C.[Ti+4] (some centres not stated) was tested, and the GI50 was over 100 µM and the TGI was over 100 µM.
Work on CNC(=S)NC(=O)c1c(Cl)n(C(=O)OC(C)(C)C)c2ccccc12 yielded a GI50 of over 100 µM and a TGI of over 100 µM.
Compound CC1=C(C(=O)Nc2ccc(Cl)c(Cl)c2)C(c2cccc(Cl)c2)NC(=O)N1 (configuration not stated) has a GI50 of 0.197 µM and a TGI of 1.88 µM.
Work on COc1cc2c(cc1OC)-c1ccc3cc4c(cc3c1N(CCCn1ccnc1)C2)OCO4 yielded a GI50 of 16.2 µM and a TGI of 66.7 µM.
For CC1=C[C@]2(O)C(=O)[C@H](C)C[C@H]3[C@@H](CC[C@@](C)(O)/C=C\2C1=O)C3(C)C, the TGI was over 100 µM.
Work on C=C(NC(=O)C(=C)NC(=O)c1csc(C2=NC3c4csc(n4)C4NC(=O)c5csc(n5)C(C(C)(O)C(C)O)NC(=O)C5CSC(=N5)C(=CC)NC(=O)C(C(C)O)NC(=O)c5csc(n5)C3(CC2)NC(=O)C(C)NC(=O)C(=C)NC(=O)C(C)NC(=O)C(C(C)CC)NC2C=Cc3c(C(C)O)cc(nc3C2O)C(=O)OC4C)n1)C(N)=O (configuration not stated) yielded a GI50 of 76.7 µM and a TGI of over 100 µM.
CN(C)CCNC(=O)c1cccc2nc3cc(Cl)ccc3nc12 gave a TGI of 10.4 µM.
In the case of Cc1cc(C)nc(NS(=O)(=O)c2ccc(NNc3c4ccccc4nc4c(C(=O)Nc5ccc(S(N)(=O)=O)cc5)cccc34)cc2)n1, the TGI is reported as over 100 µM.
c1ccc(N=C(Nc2ccccc2)N2CCCC2)cc1 was tested, and the TGI was over 100 µM.
CC1=C(C(=O)Nc2cc(=O)n(C)c(=O)n2C)C(c2cccc([N+](=O)[O-])c2)C(C(=O)Nc2cc(=O)n(C)c(=O)n2C)=C(C)N1 showed a TGI of over 100 µM.
Compound CN1CC(=O)N(C)c2ncn(Cc3ccccc3)c2C1=O has a TGI of over 100 µM.
O=C1c2ccccc2C(=O)N1CC1S(=O)(=O)OCCOS1(=O)=O was tested, and the TGI was over 100 µM.
COc1ccc(/C(=N\NC(=O)C(=O)NN)C(c2ccc(OC)cc2)C2(O)C(=O)Nc3ccccc32)cc1 (configuration not stated) was tested, and the TGI was over 100 µM.
Compound N#Cc1ccc2c(c1)C(=O)c1c-2n(CCCCl)c(=O)c2cc([N+](=O)[O-])ccc12 has a GI50 of over 100 µM and a TGI of over 100 µM.
With C=CCN1C(=O)/C(=C\c2cc(C(C)(C)C)c(O)c(C(C)(C)C)c2)NC1=S the TGI was over 100 µM.
Compound COc1ccc2cc3[nH]c(=O)cc(O)c3cc2c1OC has a TGI of over 100 µM.
Compound O=C1O/C(=C\c2ccccc2)N(c2ccccc2)C1=O has a TGI of over 100 µM.
Compound Cc1occc1C(=S)Nc1ccc(Cl)c(C(=O)OC(C(C)C)C(C)C)c1 has a TGI of 38.7 µM.
CN(C)CC1CN=C(N)O1 (configuration not stated) showed a TGI of over 100 µM.
COc1cc2nc(-c3cccs3)nc(N3CCN(c4ccccc4C(F)(F)F)CC3)c2cc1OC gave a TGI of over 100 µM.
With O=c1ccs[nH]1 the TGI was 76.6 µM.
For O=C(O)C1CCCCC1C(=O)Nn1cnnc1 (configuration not stated), the TGI was over 100 µM.
In the case of Cc1nc2sc(C(=O)Nc3cccc4ccccc34)c(N)c2cc1C(O)c1ccccc1 (configuration not stated), the GI50 is reported as 0.318 µM and the TGI is reported as 52.6 µM.
CC(=O)O/C=C1/C[C@H]2[C@@H]3CCC4CC(C(C)=O)CC[C@]4(C)[C@H]3CC[C@]2(C)C1=O (some centres not stated) was tested, and the TGI was over 100 µM.
For C=C1C(C2(C)C(OC(C)=O)CC(=O)OC(C)(COC(C)=O)C2CC(=O)OC)C(OC=O)C(OC(=O)C(O)C(C)CC)C2(C)C(c3ccoc3)CC(=O)C12O (configuration not stated), the TGI was over 100 µM.
COC(=O)c1cc2c3ccccc3n3c(=O)c4cc5ccccc5nc4c(n1)c23 showed a GI50 of over 100 µM and a TGI of over 100 µM.
C=C1C(=O)O[C@H]2[C@H]1CC/C(COC(=O)c1cc3ccccc3o1)=C\CC[C@@]1(C)O[C@@H]21 was tested, and the GI50 was 5.52 µM and the TGI was 18.4 µM.
COc1ccc(NC(=O)CC/C(CC(=O)C(C)(C)C)=N\NC(=O)C(=O)NN)cc1 gave a TGI of over 100 µM.
In the case of Nn1c(CCCCCCCCc2nnc(COc3ccc4ccccc4c3O)n2N)nnc1COc1ccc2ccccc2c1O, the TGI is reported as over 100 µM.
COC(=O)c1ccc(NC(=O)O/N=C(\Cl)C(C)C)cc1 was tested, and the TGI was 30.1 µM.
For COc1ccc(C(=O)C(C(=O)CC(=O)Nc2cccc(C(F)(F)F)c2)c2ccc(OC)cc2)cc1 (configuration not stated), the TGI was over 100 µM.
NC(=O)c1cc2ccc(O)cc2o/c1=N/NC(=O)c1ccccc1 gave a TGI of over 100 µM.
In the case of CC(C)(C)OCC1NC(=O)[C@@H]2Cc3c([nH]c4ccccc34)C(c3ccccc3)N2C1=O (some centres not stated), the TGI is reported as over 50 µM.
Work on Cc1c2c(cc[n+]1Cc1ccccc1)c1ccc(OCc3ccccc3)cc1n2Cc1ccccc1 yielded a GI50 of 1.02 µM and a TGI of 2.26 µM.
CC(O)c1cc2c(s1)C(=O)c1ccsc1C2=O (configuration not stated) was tested, and the TGI was 0.699 µM.
For CC(=O)CC(N)=O, the TGI was over 100 µM.
Work on O=P1(Oc2ccc(Cl)cc2Cl)Oc2ccc3ccccc3c2-c2c(ccc3ccccc23)O1 yielded a TGI of 57.1 µM.
In the case of O=S(=O)(NCCCNc1nccc(-c2c(-c3ccc(F)c(O)c3)nc3sccn23)n1)c1ccc(F)cc1, the GI50 is reported as 2.35 µM and the TGI is reported as 6.8 µM.
For Cc1n[nH]c(=O)n1/N=C/c1ccc(F)cc1, the TGI was over 100 µM.
Work on C=C(C)[C@@H]1CC[C@]2(C(=O)O)CC[C@]3(C)[C@H](CC[C@@H]4[C@@]5(C)CCC(NC(=O)c6cccc(OC(C)=O)c6OC(C)=O)C(C)(C)[C@@H]5CC[C@]43C)[C@@H]12 (some centres not stated) yielded a GI50 of 0.791 µM and a TGI of 3.69 µM.
In the case of COc1c(OC(C)C)c(OC(C)C)c2oc(=O)n3c2c1C(c1ccccc1-n1c(C)ccc1C)C=C3 (configuration not stated), the TGI is reported as 78.2 µM.
CC(=O)[C@@H]1C/C(=C\OCc2ccccc2)O[C@H]1C was tested, and the TGI was over 100 µM.
With O=C(O)Cc1cc(=O)[nH]c2c1/C(=N/O)CCC2 the TGI was over 100 µM.
COc1cccc2c1CCc1cc3c(N)nc(N)nc3nc1-2 gave a TGI of 8.74 µM.
Cc1cccc(C)c1NC(=O)C(=O)CC(=O)/C=C/c1ccccc1 showed a TGI of over 100 µM.
O=C1c2ccccc2CN1c1ccc(OCCN2CCCCC2)cc1 gave a TGI of over 10 µM.
O=C(O)NC(c1ccccc1)C(NC(=O)c1ccccc1)c1ccccc1 (configuration not stated) was tested, and the TGI was over 100 µM.
Work on CCCC[C@H]1[C@@H](OCOc2ccccc2)COC(=O)N1[C@H](C)c1ccccc1 yielded a TGI of 73.6 µM.
Work on Nc1ccc2c(=O)cc(-c3cccs3)[nH]c2n1 yielded a TGI of over 100 µM.
For CC(C)(Oc1ccccc1)C(=O)Sc1c(-c2ccccc2)c(=O)n(-c2ccccc2)c(=S)n1-c1ccccc1, the TGI was 49.4 µM.
C[C@]12CC[C@@H]3c4cc(-c5ccc(F)cc5)c(O)cc4CC[C@H]3[C@@H]1CC[C@@H]2O gave a GI50 of 11.1 µM and a TGI of 23.2 µM.
O=c1cc(N2CCN(CCCCCOc3cc(O)c4c(=O)cc(-c5ccccc5)oc4c3)CC2)c2ccccc2o1 was tested, and the GI50 was over 100 µM and the TGI was over 100 µM.
With c1ccc2c(NCCCCCCNc3c4ccccc4nc4ccccc34)c3ccccc3nc2c1 the TGI was 1.96 µM.
Work on CCOP(=O)(OCC)/C(=C/NC(=S)c1ccncc1)C(=O)OC yielded a TGI of over 100 µM.
Work on CCC(C)(NC(=O)C(C)NC(=O)OC(C)(C)C)C(=O)NC(C)C(=O)NC(C)(CC)C(=O)ON=C1CCCC1 (configuration not stated) (Boc-A[Iva]A[Iva]-X48; configuration not given here) yielded a TGI of over 100 µM.
For COc1ccc2c3c([nH]c2c1[N+](=O)[O-])C(C)N(Cc1ccc([N+](=O)[O-])cc1)CC3 (configuration not stated), the TGI was 43.7 µM.
Compound COc1cc(OC)c(SSCCCCS(=O)O)c(OC)c1 has a TGI of 36.5 µM.
Work on COc1cc(C2SCC(=O)N2c2ccc(-n3c(-c4ccccc4)nc4ccccc4c3=O)cc2)cc(OC)c1OC (configuration not stated) yielded a TGI of over 100 µM.
In the case of CC(C)(C)CC(C)(C)c1cc2c(O)c(c1)Cc1cc(C(C)(C)CC(C)(C)C)cc(c1O)Cc1cc(C(C)(C)CC(C)(C)C)cc(c1O)Cc1cc(C(C)(C)CC(C)(C)C)cc(c1O)Cc1cc(C(C)(C)CC(C)(C)C)cc(c1O)C2, the TGI is reported as over 100 µM.
